Assay results published in PubChem BioAssay AID504339 (National Center for Advancing Translational Sciences (NCATS), 2011).
The campaign covered roughly 390,000 compounds. About 17,000 (4.4%) were called active. This list was built around the results that the source calls inconclusive (neither active nor inactive); the mix of calls is not that of the screen. Calls follow the shape of the dose curve; as a rule, active = well fitted inhibition curve with a large enough effect; inconclusive = small, poorly fitted or top-dose-only effect; inactive = no such curve, though single readings can be large or run the other way. Potencies beside an inconclusive call are fits to weak or partial responses and may not hold up.

target: Lysine-specific demethylase 4A (Homo sapiens) (UniProt O75164); assay: qHTS Assay for Inhibitors of JMJD2A-Tudor Domain; conditions: AlphaScreen JMJD2A-Tudor / H3K4me3 peptide binding; activity change, negative = inhibition: at 114 µM (top of the series); also: nearly all actives have a fitted effect of over 50% in size
Chain of UniProt O75164 (O75164 whole entry, looked up, the tested form may be a part): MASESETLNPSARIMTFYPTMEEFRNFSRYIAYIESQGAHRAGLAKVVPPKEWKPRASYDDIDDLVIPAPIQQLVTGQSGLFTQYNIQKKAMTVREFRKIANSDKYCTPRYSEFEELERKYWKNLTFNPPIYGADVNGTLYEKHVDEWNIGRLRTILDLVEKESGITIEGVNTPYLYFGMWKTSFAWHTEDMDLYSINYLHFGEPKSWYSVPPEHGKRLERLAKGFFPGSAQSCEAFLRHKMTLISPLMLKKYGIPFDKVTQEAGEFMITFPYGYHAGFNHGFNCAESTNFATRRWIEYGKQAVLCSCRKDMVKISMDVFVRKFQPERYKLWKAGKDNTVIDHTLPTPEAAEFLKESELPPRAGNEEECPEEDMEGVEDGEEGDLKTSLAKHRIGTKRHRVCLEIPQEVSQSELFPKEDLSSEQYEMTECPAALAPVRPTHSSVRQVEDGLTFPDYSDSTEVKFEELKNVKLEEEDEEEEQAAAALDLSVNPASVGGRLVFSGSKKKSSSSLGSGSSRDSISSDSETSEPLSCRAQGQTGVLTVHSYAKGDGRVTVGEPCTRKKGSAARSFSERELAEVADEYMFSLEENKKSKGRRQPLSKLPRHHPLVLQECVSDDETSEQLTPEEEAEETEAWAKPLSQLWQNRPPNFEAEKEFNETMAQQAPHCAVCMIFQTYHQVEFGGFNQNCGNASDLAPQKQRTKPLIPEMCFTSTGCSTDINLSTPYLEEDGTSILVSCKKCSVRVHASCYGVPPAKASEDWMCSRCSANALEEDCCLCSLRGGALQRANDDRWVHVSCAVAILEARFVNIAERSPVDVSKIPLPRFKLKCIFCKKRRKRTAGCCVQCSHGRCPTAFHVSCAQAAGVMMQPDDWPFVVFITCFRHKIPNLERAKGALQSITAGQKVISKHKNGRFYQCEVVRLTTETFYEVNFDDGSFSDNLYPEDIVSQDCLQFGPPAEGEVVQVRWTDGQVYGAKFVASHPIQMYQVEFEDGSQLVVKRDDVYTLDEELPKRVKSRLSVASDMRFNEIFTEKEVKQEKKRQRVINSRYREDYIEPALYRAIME
% is scaled to controls: 0 for no effect and ±100 for the full control effect; potency is read from the fitted curve at half-maximal effect; tags tell the direction and shape of the fitted curve.

SMILES	Potency	activity change, negative = inhibition
COc1ccc(-n2ncc3c(NCc4ccccn4)ncnc32)cc1	active: 14.1 µM	–
CCOC(=O)c1c(NS(=O)(=O)c2cccc(OC)c2)sc2c1CCC2	inconclusive: 56.2 µM [inhibitor, partial curve]	–
NCCc1c(C(=O)O)[nH]c2ccc([N+](=O)[O-])cc12	–	inactive: -10.3% [at 11.4 µM]
COc1cc(C)ccc1OCCCCN1CC(C)OC(C)C1 (configuration not stated)	active: 35.5 µM	–
N#Cc1cc2c(=O)n3ccccc3nc2n(-c2nnc(SCc3ccccc3Cl)s2)c1=O	–	inactive: 11.7%
FC(F)(F)c1ccccc1CNCc1ccc2c(c1)OCO2	active: 20 µM	–
Cc1cc2c(OCC(O)CN3CCCCC3)cccc2[nH]1 (configuration not stated)	inconclusive: 63.1 µM [inhibitor, partial curve, poor fit]	–
O=C(COc1ccccc1[N+](=O)[O-])N1CCC(Cc2ccccc2)CC1	–	inactive: -5.26% [at 11.4 µM]
COc1cccc(CN2CCN(Cc3cc(OC)c(OC)cc3[N+](=O)[O-])CC2)c1	active: 0.794 µM	–
O=C(N/N=C/c1ccoc1)c1ccccc1O	–	inactive: -18.8%
COC(=O)c1ccc(NC(=O)CN2C(=O)CC(C)S(=O)(=O)c3ccccc32)cc1 (configuration not stated)	–	inactive: -10.5%
COc1ccc2oc(/C=C/N(C)C)c(C(=O)c3ccc(Cl)cc3)c2c1	inconclusive: 44.7 µM [inhibitor, partial curve]	–
CCCCCN1C(C(=O)c2ccccc2)=C(OC(=O)CC)c2ccccc2S1(=O)=O	inconclusive: 79.4 µM [inhibitor, partial curve]	–
Cc1cccc(NC(=O)CCSc2nc(C)cc(C)n2)c1	–	inactive: -7.14%
COc1ccc(Nc2oc(COc3ccc(Cl)cc3)nc2C#N)cc1	inconclusive: 50.1 µM [inhibitor, partial curve]	–
Cn1c(O)c(N=Nc2nc(-c3ccccc3)cs2)c2ccccc21	inconclusive: 3.98 µM [inhibitor, full curve, poor fit]	–
COc1cccc(/C=N/NC(=O)c2ccc(-n3cnnn3)cc2)c1	–	inactive: -0.344%
N#CC1=C(N)SC(N)=C(C#N)C1C1C=CCCC1 (configuration not stated)	–	inactive: -17.9%
COc1ccc(-c2nc(CSCC(=O)NCc3ccccc3Cl)c(C)o2)cc1OC	inconclusive: 63.1 µM [inhibitor, partial curve, poor fit]	–
CCOc1cc(C(=O)NC(=S)Nc2ccc(Cl)c(C(=O)O)c2)cc(OCC)c1OCC	inconclusive: 3.55 µM [inhibitor, full curve, poor fit]	–
CCN(CCO)C1CC(=O)N(c2ccccc2C)C1=O (configuration not stated)	active: 39.8 µM	–
Cn1c(=O)c2[nH]c(=S)n(Cc3ccccc3)c2n(C)c1=O	inconclusive: 1.12 µM [inhibitor, full curve, poor fit]	–
